Two molecules from publication PMC3639976 can be followed below.

Results are given in words; binding and its absence hold for the method and conditions named. In cells and extracts the contact can be indirect. Some binding calls cover weakened binding; strength is not graded here. For some assays here: Where a sequence is shown, tags or fusion partners need not be part of it.

In experiment [1] the target is T1, GFP-TAB1 (UniProt Q15750).
T1 sequence: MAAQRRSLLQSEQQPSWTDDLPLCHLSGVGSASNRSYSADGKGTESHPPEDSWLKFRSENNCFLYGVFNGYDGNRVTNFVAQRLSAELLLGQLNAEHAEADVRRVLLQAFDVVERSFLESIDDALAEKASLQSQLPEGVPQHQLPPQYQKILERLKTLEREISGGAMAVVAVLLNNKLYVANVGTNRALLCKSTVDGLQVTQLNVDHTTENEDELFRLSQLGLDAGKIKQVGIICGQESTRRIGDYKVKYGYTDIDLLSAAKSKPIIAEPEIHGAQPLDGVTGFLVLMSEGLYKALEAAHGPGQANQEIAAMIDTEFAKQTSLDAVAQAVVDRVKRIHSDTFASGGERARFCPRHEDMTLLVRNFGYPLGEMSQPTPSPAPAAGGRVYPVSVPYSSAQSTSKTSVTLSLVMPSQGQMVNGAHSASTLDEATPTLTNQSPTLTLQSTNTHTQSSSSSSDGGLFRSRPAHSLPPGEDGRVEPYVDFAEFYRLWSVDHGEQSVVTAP
As to the kind of experiment: co-IP; HEK293IL-1R cells transfected, GFP-TAK1 or GFP-TAB1 alone (no co-expressed MYC-TAB1); pulldown with GFP-Trap_A agarose beads, 2 h at 4°C, washes with lysis buffer (0,5 M NaCl); immunoblotting. On the technique in general: A western blot detects proteins with antibodies after separation by electrophoresis.

Experiment [2] deals with 3xFLAG-PPARβ/δ (mouse) (UniProt P35396). Nature of the experiment: co-IP; HEK293T cells transfected, fractionated; cytoplasmic fraction; pulldown with an antibody against FLAG; immunoblotting.

B1: 3xFLAG-PPARβ/δ 166–440 (domain or fragment, UniProt P35396 166-440)
chain: QHNPQLADLKAFSKHIYNAYLKNFNMTKKKARSILTGKSSHNAPFVIHDIETLWQAEKGLVWKQLVNGLPPYNEISVHVFYRCQSTTVETVRELTEFAKNIPNFSSLFLNDQVTLLKYGVHEAIFAMLASIVNKDGLLVANGSGFVTHEFLRSLRKPFSDIIEPKFEFAVKFNALELDDSDLALFIAAIILCGDRPGLMNVPQVEAIQDTILRALEFHLQVNHPDSQYLFPKLLQKMADLRQLVTEHAQMMQWLKKTESETLLHPLLQEIYKDMY
On to B1, for which the binding result in experiment [1] is given as “binds”.

B2: endogenous TAK1 (protein, UniProt O43318 1-606)
chain: MSTASAASSSSSSSAGEMIEAPSQVLNFEEIDYKEIEVEEVVGRGAFGVVCKAKWRAKDVAIKQIESESERKAFIVELRQLSRVNHPNIVKLYGACLNPVCLVMEYAEGGSLYNVLHGAEPLPYYTAAHAMSWCLQCSQGVAYLHSMQPKALIHRDLKPPNLLLVAGGTVLKICDFGTACDIQTHMTNNKGSAAWMAPEVFEGSNYSEKCDVFSWGIILWEVITRRKPFDEIGGPAFRIMWAVHNGTRPPLIKNLPKPIESLMTRCWSKDPSQRPSMEEIVKIMTHLMRYFPGADEPLQYPCQYSDEGQSNSATSTGSFMDIASTNTSNKSDTNMEQVPATNDTIKRLESKLLKNQAKQQSESGRLSLGASRGSSVESLPPTSEGKRMSADMSEIEARIAATTAYSKPKRGHRKTASFGNILDVPEIVISGNGQPRRRSIQDLTVTGTEPGQVSSRSSSPSVRMITTSGPTSEKPTRSHPWTPDDSTDTNGSDNSIPMAYLTLDHQLQPLAPCPNSKESMAVFEQHCKMAQEYMKVQTEIALLLQRKQELVAELDQDEKDQQNTSRLVQEHKKLLDENKSLSTYYQQCKKQLEVIRSQQQKRQGTS
On to B2, for which the binding entry in experiment [2] is “binds”.
